The whole screen tested about 260,000 compounds, of which about 890 (0.34%) were called active. Inconclusive means that the source gave no clear call. Such entries were picked first, then a sample of the others. Calls come from the whole dose curve; as a rule, active = well fitted activation curve with a large enough effect; inconclusive = small, poorly fitted or top-dose-only effect; inactive = no such curve, though single readings can be large or run the other way. Potencies of inconclusive entries are left out as doubtful fits.
Target: Pyruvate kinase PKM (Homo sapiens) (UniProt P14618)
Sequence of UniProt P14618 (P14618 whole entry, looked up, canonical isoform): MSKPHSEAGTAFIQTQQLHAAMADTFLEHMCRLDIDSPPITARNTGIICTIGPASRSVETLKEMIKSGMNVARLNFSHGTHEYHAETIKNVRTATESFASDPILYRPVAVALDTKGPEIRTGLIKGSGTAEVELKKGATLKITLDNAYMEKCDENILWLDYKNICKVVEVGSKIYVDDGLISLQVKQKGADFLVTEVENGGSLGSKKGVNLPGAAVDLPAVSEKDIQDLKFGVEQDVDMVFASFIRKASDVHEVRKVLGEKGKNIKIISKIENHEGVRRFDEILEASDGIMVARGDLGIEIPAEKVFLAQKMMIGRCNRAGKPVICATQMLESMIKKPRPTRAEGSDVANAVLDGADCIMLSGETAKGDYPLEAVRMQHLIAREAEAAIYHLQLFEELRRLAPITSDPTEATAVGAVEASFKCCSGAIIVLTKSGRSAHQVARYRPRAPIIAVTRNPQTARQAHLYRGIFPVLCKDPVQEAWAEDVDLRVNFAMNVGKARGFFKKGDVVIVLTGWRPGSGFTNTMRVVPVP
Assay: qHTS Assay for Activators of Human Muscle isoform 2 Pyruvate Kinase; note: nearly all actives have a fitted effect of over 55% in size
Settings: purified PKM2, Kinase-Glo ATP luminescence; Potency: activation; activation: at 57.5 µM (top of the series), 0% is enzyme alone, no compound
Outline: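 Kinase-Glo luminescence reports ATP generated from ADP (0.1 mM) and PEP (0.5 mM) by purified hPK-M2 after 1 h at room temperature, pH 7.2 imidazole buffer; intermediate enzyme activity allows detecting inhibitors and activators.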
% is set by controls: 0 for no effect and ±100 for the full control effect; potency is the fitted concentration of half-maximal effect; tags give direction and shape of the fitted curve.

SMILES | Potency | activation
O=C(CNc1cccc2ccccc12)c1ccc([N+](=O)[O-])cc1 | inactive | –
COC(=O)C1=C(C)N=c2s/c(=C/c3ccoc3)c(=O)n2C1c1ccccc1 (configuration not stated) | active: 22.4 µM | –
Cc1ccc2[nH]c(-c3ccccc3)cc(=O)c2c1 | inactive | –
O=S(=O)(Nn1cnnc1)c1ccccc1Cl | inactive | –
Cc1c(C(=O)OCC2CCCO2)[nH]c2c1C(=O)CC(c1ccco1)C2 (configuration not stated) | active: 20 µM | –
O=C1ON=C(c2ccccc2)/C1=C/c1ccc(-c2ccccc2[N+](=O)[O-])o1 | inconclusive [rising, partial curve] | –
COc1ccc(OCc2nc3ccc(S(=O)(=O)Nc4ccccc4Cl)cc3[nH]2)cc1 | inconclusive [rising, single point] | –
N/C(=N\c1nc2ccccc2o1)NC(=O)c1cccc(Br)c1 | inconclusive [rising, single point] | –
COc1ccc(OCCOc2ccccc2[N+](=O)[O-])cc1 | inactive | –
CC1=CC(=O)c2ccccc2C1=O | inconclusive [rising, partial curve] | –
CCOC(=O)C(CCCCC(NC(C)=O)(C(=O)OCC)C(=O)OCC)(NC(C)=O)C(=O)OCC | inconclusive [rising, single point] | –
NC(=O)Nn1c(CCC(=O)O)ccc1-c1ccc(F)cc1 | inconclusive [rising, single point] | –
O=C(c1cccnc1)N1CCN(C(=O)c2cccc(Cl)c2)CC1 | inconclusive [rising, single point] | –
CCOc1ccc(CN2CCNC(=O)C2CC(=O)NCc2csc(C)n2)cc1 (configuration not stated) | inactive | –
O=C(CNC(=S)N(CCCN1CCOCC1)Cc1cccs1)NCCN1CCOCC1 | inactive | –
COC(=O)[C@@]1(Cc2ccc(F)cc2)[C@H]2c3cc(C(=O)N(C)C)n(Cc4cc(F)c(F)c(F)c4)c3C[C@H]2CN1C(=O)c1ccccc1 | inactive | –
O=C(CCc1nc2ccccc2s1)N1CCN(S(=O)(=O)c2cccs2)CC1 | inconclusive [rising, full curve, poor fit] | –
O=C1c2ccccc2C(O)N1Cc1ccco1 (configuration not stated) | inconclusive [rising, full curve, poor fit] | –
N#Cc1ccc(CSc2ncnc3c2cnn3Cc2ccccc2)cc1 | active: 20 µM | –
CC(=O)Nc1ccc(S(=O)(=O)Nc2cc([N+](=O)[O-])ccc2C)cc1 | inactive | –
N=C1c2c(cc(=O)n3c2[nH]c2ccccc23)CN1CCN1CCOCC1 | inconclusive [rising, partial curve] | –
CCc1cc2cc(C)cc(C)c2nc1SCC(=O)N1CCN(C(=O)c2ccco2)CC1 | inconclusive [rising, single point] | –
CCOC(=O)C1(CCOc2ccccc2)CCN(Cc2ccncc2)CC1 | inactive | –
Cc1ccc(CNC(=O)C2CCN(S(=O)(=O)c3c(C)noc3/C=C/c3ccco3)CC2)cc1 | inconclusive [rising, single point] | –
O=C1/C(=C/c2ccc(N3CCOCC3)o2)SC(=Nc2ccccc2)N1CCc1c[nH]c2ccccc12 | inconclusive [rising, full curve] | –
Cc1csc(NC(=O)/C=C/c2ccc(C)o2)n1 | inconclusive [rising, single point] | –

SMILES | Potency | activation
CCOc1cc(C(=O)NCCN2C(=O)S/C(=C\c3cccnc3)C2=O)cc(OCC)c1OCC | active: 17.8 µM | –
O=C(c1c[nH]c2ccccc12)C(O)C(c1ccccc1)N1CCOCC1 (configuration not stated) | inconclusive [rising, single point] | –
O=C(Nc1nc(-c2ccc3ccccc3c2)cs1)C1CCN(S(=O)(=O)c2cccs2)CC1 | inactive | –
O=S(=O)(Nc1nc2ccccc2nc1N1CCN(c2ccccn2)CC1)c1ccc(Cl)cc1 | inactive | –
Cn1c(SCc2ccccc2F)nc2cccnc21 | inconclusive [rising, partial curve, poor fit] | –
Cn1c(NCc2c[nH]c3ccccc23)nc2ccccc21 | inconclusive [rising, partial curve] | –
N=c1c2c(n(Cc3cccc(Cl)c3)c3c1CCC3)CCCC2 | inactive | –
c1ccc(C(CN2CCOCC2)c2ccccc2)cc1 | inactive | –
O=C(Nc1ccc2oc(-c3cccnc3)nc2c1)c1cccnc1 | inactive | –
C/C(Cc1ccccc1)=N\NC(=O)CNC(=O)Cc1ccccc1 | inactive | –
O=C(CSc1nc2ccccc2c2nc3ccccc3n12)NCc1ccco1 | inconclusive [rising, partial curve] | –
O=c1c2ccccc2nc(-c2ccco2)n1Cc1ccccc1 | inconclusive [rising, single point] | –
CC1CC(C)CN(CCCNC(=O)C2CCN(S(=O)(=O)N3CCCCC3)CC2)C1 (configuration not stated) | inactive | –
O=S(=O)(c1ccc2c(c1)OCCO2)N1CCC(n2cnc3cc(F)ccc32)CC1 | active: 7.08 µM | –
O=C(NC(=S)Nc1ncc(Br)cc1Br)c1cncc(Br)c1 | inconclusive [rising, single point] | –
Nc1ccc2nc3c(=O)[nH]c(=S)[nH]c3nc2c1 | inconclusive [rising, full curve, poor fit] | –
O=C(N/N=C/C(Cl)=C\c1ccccc1)c1cnccn1 | inactive | –
CC1(C)CC2(CC(c3ccccc3F)c3ccc(O)c(O)c3O2)NC(=S)N1 (configuration not stated) | active: 2.82 µM | –
CC(=O)c1ccc(NC(=O)C2Cc3ccccc3CN2C(=O)c2ccccc2)cc1 (configuration not stated) | inconclusive [rising, single point] | –
COc1cccc(CC(=O)Nc2nc(-c3ccc(OC)c(OC)c3)cs2)c1 | inactive | –
COc1cccc(CN2CCN(c3ccc(F)cc3)C2=O)c1 | active: 28.2 µM | –
COc1cc(OC)c2c(c1)OC1Cc3cc(OC)c(OC)cc3C2O1 (configuration not stated) | – | inactive: -6.04% [at 11.5 µM, 0% is enzyme alone, no compound]
O=S(=O)(Nc1nccs1)c1ccc(NS(=O)(=O)c2cccs2)cc1 | active: 4.47 µM | –
COc1ccc(S(=O)(=O)N2CCN(C(=O)C3CC3)CC2)cc1 | inconclusive [rising, partial curve] | –
COc1ccc(-c2noc(CCC(=O)Nc3cccnc3)n2)cc1OC | active: 8.91 µM | –
Cn1cccc1/C=N/NC(=O)c1ccncc1 | inactive | –

SMILES | Potency | activation
Cc1ccc(NC(=O)CN2CCN(S(=O)(=O)c3cccs3)CC2)cc1S(=O)(=O)N(C)C | inactive | –
O=[N+]([O-])c1ccc(-c2cc(-c3ccc(Cl)cc3)n[nH]2)cc1 | inconclusive [rising, partial curve] | –
O=C(CCC(=O)N1CCOc2ccc(Cl)cc21)NCCN1CCOCC1 | inconclusive [rising, single point] | –
O=c1c(Cl)c(Cl)cnn1-c1ccccc1 | inactive | –
COC(=O)c1cccc(NC(=O)NC(=O)c2ccccc2Cl)c1 | inconclusive [rising, single point] | –
S=C1SCN(Cc2cccnc2)CN1Cc1cccnc1 | inactive | –
O=S(=O)(c1cccs1)N1CCN(c2ccnc3cc(Cl)ccc23)CC1 | inconclusive [rising, single point] | –
Cc1cnc(NC(=O)C2(c3ccccc3)CC2)s1 | inconclusive [rising, single point] | –
C(=N\Nc1ccccn1)/c1c[nH]c2ccccc12 | inactive | –
N#Cc1ccc(COC(=O)c2ccc3c(=O)[nH]c(CN4CCOCC4)nc3c2)cc1 | inconclusive [rising, single point] | –
COC(=O)Cc1ccc(NC(=S)NCc2ccc(F)cc2)cc1 | inactive | –
CC(=O)c1c(C)[nH]c(C(=O)Nc2ccccc2Cl)c1C | inconclusive [rising, partial curve] | –
Cc1cc(C(=O)N/N=C/c2cc(Br)ccc2OC(=O)c2ccccc2Cl)n[nH]1 | inconclusive [rising, single point] | –
CCN(CC)Cc1c(O)ccc2c([N+](=O)[O-])c(C)n(-c3ccc(OC)cc3)c12 | inconclusive [rising, single point] | –
O=C(O)c1cc(-c2ccc(/C=N/NC(=S)Nc3ccccc3)o2)ccc1Cl | inconclusive [rising, single point] | –
Cc1nc(Sc2nnnn2-c2ccccc2)c(C#N)c(C)c1C | inconclusive [rising, partial curve, poor fit] | –
CCOC(=O)C1=C(CCc2ccccc2)NC(=O)NC1c1ccc(Br)cc1 (configuration not stated) | inactive | –
C=CCc1cccc2cc(C(=O)Nc3ccc(S(=O)(=O)Nc4nnc(CC)s4)cc3)c(=O)oc12 | inconclusive [rising, partial curve] | –
Cc1ccc(-c2cc(C(=O)NCCCN3CCOCC3)c3ccccc3n2)cc1C | inactive | –
O=c1c(Cc2ccc(F)cc2)c(O)ccn1Cc1ccc(Cl)cc1Cl | inconclusive [rising, single point] | –
O=[N+]([O-])c1ccc(-c2nn(-c3ccccc3)cc2/C=N/n2c(-c3ccncc3)n[nH]c2=S)cc1 | inactive | –
Cc1cc(C)n(CCC(=O)N/N=C/c2c(O)ccc3ccccc23)n1 | inactive | –
COc1ccccc1CNC(=O)N1CCN(S(=O)(=O)c2ccccc2)CC1 | inconclusive [rising, single point] | –
COc1ccc(C(=O)/C=C/c2ccccc2)c(OC)c1 | inactive | –
O=C(Nc1nc(-c2ccco2)c(-c2ccco2)s1)C1CCC1 | inconclusive [rising, partial curve] | –

Source: PubChem BioAssay AID1631 (National Center for Advancing Translational Sciences (NCATS), 2009)
